Test results taken from the supplement of paper PMC12217912.
The list shows a part of the results. Sequences were assembled here from the parent chain. Values near 0.05 are background.

B1: TEV protease; numbered along this chain (parent)
chain: MGESLFKGPRDYNPISSSICHLTNESDGHTTSLYGIGFGPFIITNKHLFRRNNGTLVVQSLHGVFKVKDTTTLQQHLVDGRDMIIIRMPKDFPPFPQKLKFREPQREERICLVTTNFQTKSMSSMVSDTSCTFPSGDGIFWKHWIQTKDGQCGSPLVSTRDGFIVGIHSASNFTNTNNYFTSVPKNFMELLTNQEAQQWVSGWRLNADSVLWGGHKVFMVKPEEPFQPVKEATQL

Variants of: B1
Assay: raw area under fraction-flipped curve 0-4 h after induction (AUC4h, not background-subtracted), DNA-recorder readout of cleavage of the substrate (dimensionless); higher = more cleavage of the substrate by the protease variant
Settings: temperature: 34 °C; time window: 0-4 h after rhamnose induction
Method: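 In vivo DNA recorder in E. coli TOP10(DE3) ΔrhaA at 34 °C. Each TEVp single-site mutant (parent TEVp 0) is paired with a single-site variant of the 7-mer TEVs (canonical ENLYFQ|S). The substrate sits between flexible linkers in a Bxb1-sfGFP-TEVs-SsrA fusion, so cleavage stabilises Bxb1 and speeds flipping of a recombination array, read by NGS. The value is the raw area under the fraction-flipped curve over 0-4 h after rhamnose induction (AUC4h), with ≥20 reads per time point. It is not background-subtracted; inactive controls average about 0.047.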
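Further: Bxb1 expression induced with 0.2% (w/v) L-rhamnose at OD600 near 0.5, cultures sampled hourly, flipped fraction per protease–substrate barcode pair counted by paired-end Illumina sequencing.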

Variant | area with substrate ENLYFQA | area with substrate ENLYFQC | area with substrate ENLYFQD | area with substrate ENLYFQG | area with substrate ENLYFQK | area with substrate ENLYFQM | area with substrate ENLYFQR | area with substrate ENLYFQS | area with substrate ENLYFQT | area with substrate ENLYFQV | area with substrate ENLYFQW | area with substrate ENLYFQY | area with substrate ENLYFQL | area with substrate ENLYFQE | area with substrate ENLYFQF | area with substrate ENLYFQI | area with substrate ENLYFQH | area with substrate ENLYFQN | area with substrate ENLYFQP | area with substrate ENLYFQQ
MGESLFKGPRDYNPISSSICHLTNESDGHTTSLYGIGFGPFIITNKHLFRRNNGTQVVQSLHGVFKVKDTTTLQQHLVDGRDMIIIRMPKDFPPFPQKLKFREPQREERICLVTTNFQTKSMSSMVSDTSCTFPSGDGIFWKHWIQTKDGQCGSPLVSTRDGFIVGIHSASNFTNTNNYFTSVPKNFMELLTNQEAQQWVSGWRLNADSVLWGGHKVFMVKPEEPFQPVKEATQL [L56Q] | 0.0425 | 0.0448 | 0.0444 | 0.0815 | 0.0505 | 0.0543 | 0.0431 | 0.0455 | 0.0505 | 0.0716 | 0.0543 | 0.0276 |  |  |  |  |  |  |  | 
MGESLFKGPRDYNPISSSICHLTNESDGHTTSLYGIGFGPFIITNKHLFRRNNGTMVVQSLHGVFKVKDTTTLQQHLVDGRDMIIIRMPKDFPPFPQKLKFREPQREERICLVTTNFQTKSMSSMVSDTSCTFPSGDGIFWKHWIQTKDGQCGSPLVSTRDGFIVGIHSASNFTNTNNYFTSVPKNFMELLTNQEAQQWVSGWRLNADSVLWGGHKVFMVKPEEPFQPVKEATQL [L56M] | 0.113 | 0.0795 |  | 0.108 | 0.0435 |  | 0.058 | 0.108 | 0.0629 | 0.0822 | 0.058 | 0.0585 | 0.0698 |  |  |  |  |  |  | 
MGESLFKGPRDYNPISSSICHLTNESDGHTTSLYGIGFGPFIITNKHLFRRNNGTSVVQSLHGVFKVKDTTTLQQHLVDGRDMIIIRMPKDFPPFPQKLKFREPQREERICLVTTNFQTKSMSSMVSDTSCTFPSGDGIFWKHWIQTKDGQCGSPLVSTRDGFIVGIHSASNFTNTNNYFTSVPKNFMELLTNQEAQQWVSGWRLNADSVLWGGHKVFMVKPEEPFQPVKEATQL [L56S] | 0.0478 | 0.046 |  | 0.0446 | 0.0658 | 0.0521 | 0.0423 | 0.0514 | 0.0468 |  | 0.0537 | 0.0391 | 0.0524 | 0.0541 | 0.0584 | 0.0385 |  |  |  | 
MGESLFKGPRDYNPISSSICHLTNESDGHTTSLYGIGFGPFIITNKHLFRRNNGTPVVQSLHGVFKVKDTTTLQQHLVDGRDMIIIRMPKDFPPFPQKLKFREPQREERICLVTTNFQTKSMSSMVSDTSCTFPSGDGIFWKHWIQTKDGQCGSPLVSTRDGFIVGIHSASNFTNTNNYFTSVPKNFMELLTNQEAQQWVSGWRLNADSVLWGGHKVFMVKPEEPFQPVKEATQL [L56P] | 0.0286 |  | 0.0519 |  |  | 0.0496 | 0.0481 | 0.0456 | 0.0248 |  | 0.0568 |  | 0.0505 |  | 0.048 | 0.0332 | 0.0516 | 0.0436 |  | 
MGESLFKGPRDYNPISSSICHLTNESDGHTTSLYGIGFGPFIITNKHLFRRNNGTCVVQSLHGVFKVKDTTTLQQHLVDGRDMIIIRMPKDFPPFPQKLKFREPQREERICLVTTNFQTKSMSSMVSDTSCTFPSGDGIFWKHWIQTKDGQCGSPLVSTRDGFIVGIHSASNFTNTNNYFTSVPKNFMELLTNQEAQQWVSGWRLNADSVLWGGHKVFMVKPEEPFQPVKEATQL [L56C] | 0.0941 | 0.085 | 0.0499 |  | 0.0754 |  | 0.062 | 0.0861 | 0.0594 |  | 0.0663 |  | 0.058 |  |  |  | 0.0701 |  |  | 
MGESLFKGPRDYNPISSSICHLTNESDGHTTSLYGIGFGPFIITNKHLFRRNNGTWVVQSLHGVFKVKDTTTLQQHLVDGRDMIIIRMPKDFPPFPQKLKFREPQREERICLVTTNFQTKSMSSMVSDTSCTFPSGDGIFWKHWIQTKDGQCGSPLVSTRDGFIVGIHSASNFTNTNNYFTSVPKNFMELLTNQEAQQWVSGWRLNADSVLWGGHKVFMVKPEEPFQPVKEATQL [L56W] | 0.0474 | 0.063 | 0.0538 | 0.0658 | 0.0497 | 0.0739 | 0.0516 | 0.0627 | 0.0633 | 0.0554 | 0.0636 | 0.0525 | 0.0533 |  | 0.063 | 0.0543 | 0.0582 | 0.0577 | 0.0598 | 0.0465
MGESLFKGPRDYNPISSSICHLTNESDGHTTSLYGIGFGPFIITNKHLFRRNNGTTVVQSLHGVFKVKDTTTLQQHLVDGRDMIIIRMPKDFPPFPQKLKFREPQREERICLVTTNFQTKSMSSMVSDTSCTFPSGDGIFWKHWIQTKDGQCGSPLVSTRDGFIVGIHSASNFTNTNNYFTSVPKNFMELLTNQEAQQWVSGWRLNADSVLWGGHKVFMVKPEEPFQPVKEATQL [L56T] | 0.0551 | 0.0723 | 0.0611 | 0.0591 | 0.0546 |  | 0.0636 | 0.0665 | 0.0514 |  | 0.0445 | 0.0535 | 0.0895 | 0.0485 | 0.0506 | 0 |  | 0.0556 | 0.0568 | 0.0487
MGESLFKGPRDYNPISSSICHLTNESDGHTTSLYGIGFGPFIITNKHIFRRNNGTLVVQSLHGVFKVKDTTTLQQHLVDGRDMIIIRMPKDFPPFPQKLKFREPQREERICLVTTNFQTKSMSSMVSDTSCTFPSGDGIFWKHWIQTKDGQCGSPLVSTRDGFIVGIHSASNFTNTNNYFTSVPKNFMELLTNQEAQQWVSGWRLNADSVLWGGHKVFMVKPEEPFQPVKEATQL [L48I] | 0.0811 | 0.103 | 0.0398 | 0.101 | 0.0616 | 0.0736 | 0.0599 | 0.0802 | 0.0564 | 0.0543 | 0.0633 | 0.0505 |  |  | 0.0533 | 0.0533 | 0.0512 |  | 0.0561 | 
MGESLFKGPRDYNPISSSICHLTNESDGHTTSLYGIGFGPFIITNKHSFRRNNGTLVVQSLHGVFKVKDTTTLQQHLVDGRDMIIIRMPKDFPPFPQKLKFREPQREERICLVTTNFQTKSMSSMVSDTSCTFPSGDGIFWKHWIQTKDGQCGSPLVSTRDGFIVGIHSASNFTNTNNYFTSVPKNFMELLTNQEAQQWVSGWRLNADSVLWGGHKVFMVKPEEPFQPVKEATQL [L48S] | 0.051 | 0.0681 | 0.0264 |  | 0.0596 | 0.0509 | 0.0548 | 0.0653 | 0.066 | 0.0491 | 0.0643 | 0.0539 | 0.0608 | 0.0554 | 0.0702 | 0.0546 | 0.0285 | 0.0726 |  | 
